Assay results taken from the supplement of paper PMC12217912.
The list shows a part of the results. The full chains were built here from the parent and the listed change. Inactive controls read about 0.05.

B1: TEV protease; numbered along this chain (parent)
chain: MGESLFKGPRDYNPISSSICHLTNESDGHTTSLYGIGFGPFIITNKHLFRRNNGTLVVQSLHGVFKVKDTTTLQQHLVDGRDMIIIRMPKDFPPFPQKLKFREPQREERICLVTTNFQTKSMSSMVSDTSCTFPSGDGIFWKHWIQTKDGQCGSPLVSTRDGFIVGIHSASNFTNTNNYFTSVPKNFMELLTNQEAQQWVSGWRLNADSVLWGGHKVFMVKPEEPFQPVKEATQL

Variants of: B1
Test: raw area under fraction-flipped curve 0-4 h after induction (AUC4h, not background-subtracted), DNA-recorder readout of cleavage of the substrate (dimensionless); higher = more cleavage of the substrate by the protease variant
Settings: temperature: 34 °C; time window: 0-4 h after rhamnose induction
Experimental: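 In vivo DNA recorder in E. coli TOP10(DE3) ΔrhaA at 34 °C. Each TEVp single-site mutant (parent TEVp 0) is paired with a single-site variant of the 7-mer TEVs (canonical ENLYFQ|S). The substrate sits between flexible linkers in a Bxb1-sfGFP-TEVs-SsrA fusion, so cleavage stabilises Bxb1 and speeds flipping of a recombination array, read by NGS. The value is the raw area under the fraction-flipped curve over 0-4 h after rhamnose induction (AUC4h), with ≥20 reads per time point. It is not background-subtracted; inactive controls average about 0.047.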
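Note: Bxb1 expression induced with 0.2% (w/v) L-rhamnose at OD600 near 0.5, cultures sampled hourly, flipped fraction per protease–substrate barcode pair counted by paired-end Illumina sequencing.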

Variant | area with substrate ANLYFQS | area with substrate CNLYFQS | area with substrate DNLYFQS | area with substrate FNLYFQS | area with substrate KNLYFQS | area with substrate NNLYFQS | area with substrate PNLYFQS | area with substrate QNLYFQS | area with substrate RNLYFQS | area with substrate TNLYFQS | area with substrate VNLYFQS | area with substrate WNLYFQS | area with substrate YNLYFQS | area with substrate HNLYFQS | area with substrate INLYFQS | area with substrate LNLYFQS | area with substrate MNLYFQS | area with substrate SNLYFQS | area with substrate GNLYFQS
K100V | 0.027 | 0.0567 | 0.072 | 0.0522 | 0.0686 | 0.0661 | 0.0572 | 0.075 | 0.0634 | 0.0749 | 0.0682 | 0.0621 | 0.0663 | – | – | – | – | – | –
I85P | 0.0365 | 0.0365 | 0.0474 | 0.0331 | 0.0537 | – | 0.0321 | 0.0428 | 0.0503 | 0.0267 | 0.0444 | 0.0087 | – | 0.0367 | 0.0143 | 0.0434 | 0.0292 | 0.0396 | –
C111L | 0.076 | 0.0417 | 0.101 | – | – | – | 0.0622 | 0.0871 | – | 0.0644 | – | 0.055 | – | 0.0615 | 0.067 | – | 0.0573 | 0.072 | –
C111Y | 0.0529 | 0.0657 | 0.077 | 0.0561 | 0.0845 | – | 0.0669 | – | – | – | – | – | 0.0348 | 0.0523 | – | 0.0707 | – | 0.0706 | –
C111T | 0.0546 | 0.0828 | 0.109 | 0.0676 | – | – | 0.0748 | 0.0625 | – | 0.0733 | 0.076 | 0.0602 | – | 0.0586 | – | – | 0.0475 | 0.0666 | 0.0716
Q75C | 0.0686 | 0.0562 | 0.0891 | 0.0442 | – | 0.0796 | 0.0653 | 0.0632 | 0.0546 | 0.0535 | 0.0622 | 0.058 | – | 0.0691 | 0.0777 | 0.0588 | 0.0616 | 0.063 | 0.0639
Q74V | 0.0679 | 0.067 | 0.0647 | – | 0.066 | 0.0453 | 0.047 | 0.069 | – | – | – | 0.0627 | 0.0505 | 0.0581 | 0.0592 | 0.0595 | 0.0569 | 0.062 | 0.0654
T71L | 0.063 | 0.0731 | 0.0775 | 0.0293 | – | – | 0.0707 | – | – | 0.0608 | – | 0.0503 | – | 0.065 | – | – | 0.0625 | – | –
T71W | 0.0573 | 0.0718 | 0.0756 | – | 0.0494 | 0.0511 | – | – | – | 0.0557 | – | 0.0523 | 0.0583 | 0.0568 | 0.0546 | 0.0881 | – | – | 0.0654
T71C | 0.0855 | 0.0475 | 0.0708 | 0.0648 | – | – | 0.0508 | – | – | 0.0631 | 0.0611 | – | 0.0394 | 0.0685 | – | – | 0.0729 | – | –
E108T | 0.0468 | 0.0606 | 0.0816 | – | – | – | 0.0471 | – | 0.0437 | 0.0645 | 0.0724 | 0.049 | 0.047 | 0.0609 | – | 0.0474 | 0.0549 | – | 0.0375
D82Y | 0.0548 | 0.0613 | 0.0506 | 0.072 | – | – | 0.0468 | – | – | 0.0426 | – | 0.0521 | 0.048 | – | 0.0622 | – | 0.061 | 0.0511 | –
F92H | 0.0524 | 0.0633 | 0.0764 | 0.077 | 0.0771 | – | 0.0739 | – | – | – | – | – | 0.0605 | 0.0637 | 0.0792 | 0.0826 | – | – | 0.0789
E103C | 0.0919 | 0.0707 | 0.047 | 0.0633 | 0.0667 | 0.0983 | 0.0668 | – | – | 0.0725 | – | 0.0723 | 0.0661 | 0.0911 | 0.0843 | 0.0665 | – | – | 0.118
E103Q | 0.0433 | 0.0675 | 0.0889 | 0.0604 | 0.0548 | 0.059 | 0.0719 | – | – | 0.0411 | – | 0.0614 | 0.0514 | 0.0645 | – | 0.0708 | 0.0704 | 0.0673 | 0.0634
E103L | 0.0995 | 0.0861 | 0.0883 | 0.0401 | 0.0772 | – | 0.0515 | – | – | 0.0532 | – | 0.0625 | – | 0.0805 | – | – | – | – | 0.0805
E103A | 0.0609 | 0.0686 | 0.0915 | – | 0.0621 | 0.0637 | – | 0.0634 | – | 0.0658 | – | 0.046 | – | 0.0684 | 0.0849 | – | – | – | 0.0579
I84W | 0.0564 | 0.0609 | 0.0502 | 0.047 | – | 0.062 | 0.0589 | 0.0444 | 0.0537 | 0.0508 | 0.0554 | 0.0481 | 0.0483 | 0.0471 | – | 0.0772 | 0.0551 | 0.0473 | –
R106F | 0.0738 | 0.0587 | 0.0749 | 0.0727 | 0.0649 | – | 0.0624 | – | – | 0.0635 | 0.0559 | 0.0562 | 0.057 | 0.0768 | – | 0.064 | 0.0708 | 0.0611 | 0.0652
K66P | 0.0619 | 0.0579 | 0.0746 | 0.0672 | – | 0.0585 | – | – | – | 0.0607 | – | 0.0599 | 0.0618 | 0.0647 | 0.0341 | – | 0.0604 | – | 0.055
Q105C | 0.0781 | 0.0677 | 0.0687 | – | – | 0.0935 | – | 0.0471 | – | – | 0.086 | 0.0628 | 0.0544 | 0.0493 | 0.0435 | 0.0693 | 0.0723 | – | 0.0698
Q105M | 0.0494 | 0.0731 | 0.0818 | 0.074 | – | 0.0787 | 0.0847 | – | – | – | 0.0682 | 0.0629 | 0.0654 | 0.0664 | 0.0753 | 0.0567 | 0.072 | 0.0463 | –
T70S | 0.0749 | 0.0652 | 0.0721 | 0.0621 | – | 0.0482 | 0.0925 | – | – | 0.0745 | 0.0656 | – | – | 0.0723 | 0.0813 | 0.0758 | 0.067 | 0.0747 | –
R102T | 0.0543 | 0.0415 | 0.0523 | 0.0427 | 0.0535 | – | 0.065 | – | – | – | 0.0896 | 0.0596 | – | 0.0953 | – | – | 0.0456 | – | 0.0575
R102C | 0.0763 | 0.0453 | 0.0509 | 0.0406 | – | 0.0417 | – | 0.0446 | – | 0.0528 | 0.0514 | 0.0441 | 0.0482 | 0.0539 | – | 0.0524 | 0.0395 | 0.0508 | 0.0258
R102A | 0.0482 | 0.0514 | 0.0519 | – | 0.0644 | 0.0536 | 0.0491 | – | – | 0.0583 | 0.0544 | 0.0494 | 0.0501 | 0.0462 | 0.0391 | 0.0543 | 0.0398 | 0.0599 | 0.0589
